Measurements published in ChEMBL document CHEMBL4888484, “Replenishing the malaria drug discovery pipeline: Screening and hit evaluation of the MMV Hit Generation Library 1 (HGL1) against asexual blood stage Plasmodium falciparum ,using a nano luciferase reporter read-out” (2022).
The whole screen tested about 150,000 compounds, of which about 540 (0.36%) showed an effect of 50% or more. This is one part of the list.

System: Plasmodium falciparum
Assay: Primary screen in NF54 nanoGlo assay, in single point, at 2uM, 72h; a lower Z score goes with more inhibition
Type: functional, Erythrocyte
Conditions: timepoint 72 hour

Structure (SMILES)	% Inhibition	Z score
CCN(C(=O)CS(=O)(=O)c1ccccc1)c1ccccc1C	-15%	2.47
Cn1nc(C(=O)N2CCN(C[C@H](O)c3ccco3)CC2)ccc1=O	-16%	2.27
c1ccc(CN2C[C@H](c3ncco3)C3(CCN(CC4CCCCC4)CC3)C2)cc1	-8%	1.2
O=C1NC(=O)C2(CCN(C(=O)c3ccsc3)CC2)N1	-5%	0.66
CCc1nnc(C(C)NC(C)c2ccc(S(C)(=O)=O)c(F)c2)o1 (centres undefined)	1%	-0.18
CCc1nc2ccccc2c(=O)n1NC(=O)c1c(O)n(CC)c2ccccc2c1=O	1%	-0.08
COCCCN(Cc1c(-c2ccccc2)noc1N(C)C1CCCCC1)C(=O)c1ccc(C)cc1	-10%	2.01
O=C1CNc2ccc(C(=O)N3CCCC[C@H]3c3cccc(F)c3)cc2N1	-8%	1.39
CS(=O)(=O)N1C[C@H]2CC[C@@H](C1)N(C(=O)NCCc1ccccc1F)C2	-6%	0.86
CN(C(=O)N(C)[C@H]1CCS(=O)(=O)C1)C(C1CC1)C1CC1	-14%	2.36
OC1CC(c2cc(N3CCc4c(Cl)cccc4C3)ncn2)C1 (centres undefined)	-6%	0.98
CCCN(CCC)c1nc(-c2cccs2)nc2c1sc(=S)n2Cc1ccccc1	-8%	1.07
O=C(Nc1ccn2nccc2c1)C1CCCC1	1%	-0.2
OCCN(c1cc([C@H]2CCOC2)ncn1)C1CCCCC1	-19%	3.36
Cc1cc(CN2CCN(C)CC2)c(C)c(CN2CCCC[C@@H]2CN)c1	17%	-2.65
Cc1oc2ncn(C)c(=O)c2c1C(=O)N1CCN(Cc2ccccc2)CC1	7%	-1.14
O=C(N[C@H]1CS(=O)(=O)Cc2ccccc21)c1cc(C(F)(F)F)n[nH]1	-14%	1.6
Cc1nc(N2CCN(C(=O)CCCc3ccccc3)CC2)cc(-n2ccnc2)n1	-2%	0.23
CC1CC(N2C(=O)N3CCC[C@@]3(C)C2=O)C(=O)N1c1ccccc1 (some centres undefined)	8%	-0.86
CCOC(=O)CCNC(=O)N1CCCCCCN(C)C(=O)CC1	-10%	1.29
CC1CC(C)CN(Cc2ccc(CNC(=O)c3ccoc3)cc2)C1 (centres undefined)	-10%	1.94

Structure (SMILES)	% Inhibition	Z score
c1ccc(-n2nnc3c2CCN(CCO[C@H]2CCOC2)C3)cc1	-3%	0.49
CCCCc1nc(CN(CCO)C(C)(C)CO)cs1	-3%	0.69
COCCC1(c2nc(-c3ccc(NC(C)(C)C)cn3)no2)CCC1	2%	-0.39
Cc1cc(C(=O)N2CCN(C(=O)c3ccco3)CC2)c2c(C)nn(-c3ccccc3Cl)c2n1	-8%	1.01
CC(C)CNC1(C(=O)NCC2CC2)CCCC1	1%	-0.19
CC1CCC(NC(=O)c2ccccc2N2C(=O)N3CCc4c([nH]c5ccccc45)[C@@]3(C)C2=O)CC1 (some centres undefined)	-11%	1.61
Cc1ocnc1C(=O)N1CC[C@H]2[C@H](CCC(=O)N2CCc2cccs2)C1	-10%	1.35
O=C(OC[C@@H](O)CN1CCN(c2ccccc2)CC1)c1ccccc1	-4%	0.85
CC[C@H]1CN(c2ncnc(C(F)(F)F)c2Br)CCO1	-11%	1.49
CC[C@H](NC(=O)c1ccc2nnnn2c1)c1nc(C)c(C)s1	-8%	1.21
CCn1nc(C)cc1C(=O)N(C)[C@@H](C)c1nc(C)sc1C	-8%	1.36
Cc1cn(CCOc2ccc(Cl)cc2)c(=O)n(Cc2ccccc2)c1=O	2%	-0.27
Cc1ccc(NC(=O)[C@@H]2CN(S(=O)(=O)c3cccs3)CCO2)cc1	-7%	0.82
CCc1nccn1CCC(=O)N1C[C@H](C(=O)O)[C@@H](c2ccccc2OC)C1	-12%	2.26
COc1cccc(C)c1NC(=O)N1CCN(C)[C@H](c2nc(C)no2)C1	-8%	1.41
CCNC(=O)NC(=O)C(C)N1CCCC(CN2CCC(C)CC2)C1 (centres undefined)	-13%	1.34
Cc1ccc(-n2nc3c(N4CCN(C(=O)Nc5ccc(C)c(F)c5)CC4)nnc(C)c3c2C)cc1	-4%	0.42
Cc1ccc(C(N)=O)cc1NC(=O)c1cnn2c1C[C@@H](C)CC2	-20%	2.5
Cn1c(-c2ccccc2)nnc1[C@@H](C#N)C(=O)Nc1ccccc1	9%	-0.93
O=C(c1c[nH]nc1-c1ccccc1)N1C[C@H]2CC=CC[C@H]2C1	-9%	1.43
Cc1nn(C)c(C)c1CCCN1C(=O)N[C@@H](C)C1=O	4%	-0.53

Structure (SMILES)	% Inhibition	Z score
CC1CCN(c2nn(CC(=O)Nc3ccc4c(c3)OCO4)c(=O)c3ccccc23)CC1	-15%	2.33
Cc1ccc(OC(C)CNC(=O)N2CCS(=O)(=O)CC2C)cc1 (centres undefined)	-5%	0.57
Cc1cc(C)c(CC(=O)N2CCC3(CC2)OCC(=O)N3C)s1	-6%	0.94
CC(C)C(=O)Nc1cn(-c2ccc(C(=O)Nc3cccc(Cl)c3)cc2)cn1	23%	-3.37
CC(C)c1cc(C(=O)N2CCN(CC3CC3)[C@@H]3CS(=O)(=O)C[C@@H]32)no1	-11%	2.36
CCc1nnc2c(NC(=O)c3cccc(Br)c3)cccn12	-3%	0.64
CC(C)(C)NCc1ccccc1OCC(=O)O	2%	-0.26
CNCCNC(=O)c1ccc2c(c1)n(CC1CC1)c(=O)n2C1CCCCC1	15%	-2.03
Cc1ccc(C)c(Cn2c(C(=O)NCCc3ccccn3)cc3cc(NC(=O)c4ccccc4F)ccc32)c1	3%	-0.58
CCOc1cc(C(=O)Nc2ccc(N3CCN(c4c(F)c(F)c(F)c(F)c4F)CC3)c(Cl)c2)cc(OCC)c1OCC	21%	-2.4
Cc1cc(OCC2CCN(C(=O)c3cc4ccccn4c3)CC2)ncn1	-5%	0.72
O=C(NCCc1ccc2c(c1)OCO2)c1ccc(-n2cnnc2)nc1	-9%	0.89
O=C(c1cccc(Oc2ccc(F)cc2)c1)N1C2CCC1CC(n1ccnn1)C2 (centres undefined)	-13%	1.87
CC1=C(Cc2cn(C[C@H](O)c3cccnc3)nn2)C(C)(C)CCC1	-8%	1.13
COc1ccc(N2C(=O)N(c3ccc(F)cc3)C3CS(=O)(=O)CC32)cc1 (centres undefined)	3%	-0.35
COc1ccc(N2CCN(C(=O)Cc3coc4ccc(C)cc34)CC2)cc1	2%	-0.28
Cc1cc(C)c2[nH]c(C(=O)N(C)Cc3c(C)noc3C)c(C)c2c1	-6%	1.26
CNc1nc(C)c(C(=O)N(C)Cc2csc(-c3ccccc3)n2)s1	-5%	0.78
Cn1cncc1-c1ccc(C(=O)N2CCC[C@H](C(=O)N3CCCC3)C2)cc1	1%	-0.23
O=C(c1ccc(CO)o1)N1CC[C@H]2[C@H](CCC(=O)N2CCc2ccccn2)C1	-5%	0.61
Brc1ccc(-c2noc(C3CCCCC3)n2)o1	1%	-0.15

Structure (SMILES)	% Inhibition	Z score
Cn1cccc(C(=O)Nc2cnn(C[C@H]3COc4ccccc4O3)c2)c1=O	10%	-1.3
O=C(NCc1nccnc1-c1ccoc1)c1cncc(Br)c1	13%	-1.61
CCc1cc(N2CCC[C@H](c3nnc(Cn4ccnc4C)n3C)C2)nc(C)n1	0%	0.07
O=C(Nc1cccc(-c2cn[nH]c2)c1)C(F)(F)Cl	0%	0.06
CCNc1ncc(CN2CCc3nnc(Cc4cccnc4)n3CC2)cn1	2%	-0.41
O=C(NCc1ccncc1)C1CC1c1cccc2ccccc12 (centres undefined)	4%	-0.61
CCn1c(C)nnc1CS(=O)(=O)c1cccc(Br)c1	0%	-0.04
COc1nc(NC(=O)[C@H]2CCc3[nH]nc(C(F)(F)F)c3C2)n[nH]1	0%	-0.03
c1cc(CO[C@H]2CCOC2)cc(-c2cnn3c2OCCC3)c1	-15%	1.4
CC(C)CNc1nc(-c2ccccc2Cl)c2c(N)n(C)nc2n1	-1%	0.2
COc1cccc(CN2C(=O)CCCC[C@H]2C(=O)NCCc2c[nH]c3ccc(OC)cc23)c1	-14%	1.65
O=C(NCCCNC(=O)[C@@H]1CCCN1C(=O)COc1ccc(Cl)cc1)c1ccc(F)cc1	-5%	0.86
COc1cc(N2C[C@@H](C(=O)N3CCn4ncnc4C3)CC2=O)cc(OC)c1OC	-13%	1.17
CCO[C@H]1COC[C@@H]1n1cnc2c(C)cc(Cl)cc2c1=O	-4%	0.7
Cc1ccccc1CC(=O)Nc1ccc(-c2nc(-c3ccccc3)co2)cc1	-9%	1.12
O=C(Nc1nccc(-c2cncc(F)c2)n1)[C@H]1CCCO1	-8%	1.16
O=C(NCCCNc1cccc(F)c1)c1cccnc1	27%	-3.06
CC(=O)N[C@@H](C)c1cccc(N2CCOC2=O)c1	-5%	0.58
CCNC(=O)[C@@H]1C[C@H](NCc2cc(C)ccc2C)CN1Cc1cccc2ccccc12	14%	-1.88
